Lines with a small IC50 respond at low doses; fits outside the tested doses are given as limits. For AUC the same curve is integrated over the 256-fold range of doses and scaled to a fraction: 1 means no effect, lower means more sensitive. For part of these data: An inferred top dose is not printed in the source and was worked back from the curve model. For part of these data: Drugs with an entry number were screened twice under separate entries, and the two screens often disagree.
Columns and labels:
Test in all cases: Viability of human cancer cell lines after 72 h of drug (GDSC screen)
AMG-706 = compound: CC1(C)CNc2cc(NC(=O)c3cccnc3NCc3ccncc3)ccc21 [AMG-706]; settings: top dose 2 µM; top dose inferred
Description: (§1)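 Human cancer cell lines in 384-well plates, medium with 10% serum, drug for 72 h over a 256-fold dose range (nine 2-fold or five 4-fold steps up to the top dose). Adherent lines were fixed and stained with the nucleic acid dye Syto60, suspension lines read with resazurin; signal relative to control wells, capped at 0 and 100%. One two-parameter sigmoid per drug and line, fitted in a mixed model over all curves with the slope shared within a line.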

JQ1 = compound: Cc1sc2c(c1C)C(c1ccc(Cl)cc1)=N[C@@H](CC(=O)OC(C)(C)C)c1nnc(C)n1-2 [JQ1]; settings: top dose 1 µM; screen: GDSC drug entry 1218; top dose inferred
Description: as §1

JNJ-26854165 = compound: c1ccc2c(CCNc3ccc(Nc4ccncc4)cc3)c[nH]c2c1 [JNJ-26854165]; settings: top dose 10 µM
Description: as §1

SB-715992 = compound: Cc1ccc(C(=O)N(CCCN)[C@@H](c2nc3cc(Cl)ccc3c(=O)n2Cc2ccccc2)C(C)C)cc1 [SB-715992]; settings: top dose 0.128 µM; top dose inferred
Description: as §1

Docetaxel = compound: CC(=O)O[C@@]12CO[C@@H]1C[C@H](O)[C@@]1(C)C(=O)[C@H](O)C3=C(C)[C@@H](OC(=O)[C@H](O)[C@@H](NC(=O)OC(C)(C)C)c4ccccc4)C[C@@](O)([C@@H](OC(=O)c4ccccc4)[C@H]21)C3(C)C [Docetaxel]; settings: top dose 0.0125 µM
Description: as §1

JNK Inhibitor VIII = compound: CCOc1nc(NC(=O)Cc2cc(OC)ccc2OC)cc(N)c1C#N [JNK Inhibitor VIII]; settings: top dose 10 µM; top dose inferred
Description: as §1

Cell Line | AUC (AMG-706) | IC50 (AMG-706) [µM] | AUC (JQ1) | IC50 (JQ1) [µM] | AUC (JNJ-26854165) | IC50 (JNJ-26854165) [µM] | AUC (SB-715992) | IC50 (SB-715992) [µM] | AUC (Docetaxel) | IC50 (Docetaxel) [µM] | AUC (JNK Inhibitor VIII) | IC50 (JNK Inhibitor VIII) [µM]
RH-18 (rhabdomyosarcoma, adherent) | 0.965 | > 2 | 0.803 | 0.583 | 0.899 | > 10 | 0.985 | > 0.128 | 0.918 | > 0.0125 | 0.963 | > 10
CL-40 (large intestine, adherent) | 0.976 | > 2 | 0.966 | > 1 | 0.936 | > 10 |  |  | 0.87 | > 0.0125 | 0.976 | > 10
MOLM-16 (acute myeloid leukaemia, suspension) | 0.985 | > 2 | 0.977 | > 1 | 0.828 | 5.17 |  |  | 0.817 | 0.00591 | 0.974 | > 10
NCI-H835 (lung carcinoid, suspension) | 0.98 | > 2 | 0.928 | > 1 | 0.958 | > 10 |  |  | 0.98 | > 0.0125 | 0.988 | > 10
SK-MEL-31 (melanoma, adherent) | 0.944 | > 2 | 0.934 | > 1 | 0.886 | > 10 |  |  | 0.843 | > 0.0125 | 0.983 | > 10
CML-T1 (chronic myeloid leukaemia, suspension) | 0.992 | > 2 | 0.941 | > 1 | 0.853 | 5.81 |  |  | 0.877 | 0.00894 | 0.992 | > 10
RCH-ACV (B-cell leukaemia, suspension) | 0.992 | > 2 | 0.584 | 0.101 | 0.894 | 8.31 |  |  | 0.892 | 0.0102 | 0.99 | > 10
CL-34 (large intestine, adherent) | 0.982 | > 2 | 0.985 | > 1 | 0.964 | > 10 |  |  | 0.947 | > 0.0125 | 0.987 | > 10
MOLT-16 (T-cell lymphoblastic leukaemia, suspension) | 0.991 | > 2 | 0.705 | 0.206 | 0.34 | 0.249 |  |  | 0.718 | 0.00277 | 0.98 | > 10
NCI-N87 (stomach, adherent) | 0.959 | > 2 | 0.976 | > 1 | 0.874 | > 10 |  |  | 0.823 | 0.0122 | 0.976 | > 10
NCC010 (kidney, adherent) | 0.91 | > 2 | 0.983 | > 1 | 0.856 | 8.94 |  |  | 0.895 | > 0.0125 | 0.934 | > 10
KARPAS-1106P (B-cell lymphoma, suspension) | 0.993 | > 2 | 0.793 | 0.37 | 0.858 | 6.01 |  |  | 0.879 | 0.00907 | 0.993 | > 10
NCI-H929 (myeloma, suspension) | 0.963 | > 2 | 0.975 | > 1 | 0.949 | > 10 |  |  | 0.891 | 0.0108 | 0.973 | > 10
TC-YIK (cervix, suspension) | 0.989 | > 2 | 0.633 | 0.138 | 0.933 | > 10 |  |  | 0.849 | 0.00755 | 0.988 | > 10
IGROV-1 (ovary, adherent) | 0.975 | > 2 | 0.973 | > 1 | 0.791 | 7.12 |  |  | 0.763 | 0.00671 | 0.976 | > 10
SUP-B8 (B-cell leukaemia, suspension) | 0.986 | > 2 | 0.982 | > 1 | 0.765 | 3.64 |  |  | 0.865 | 0.0108 | 0.989 | > 10
MKN7 (stomach, adherent) | 0.975 | > 2 | 0.976 | > 1 | 0.883 | > 10 |  |  | 0.783 | 0.00732 | 0.974 | > 10
BALL-1 (B-cell leukaemia, suspension) | 0.997 | > 2 | 0.996 | > 1 | 0.9 | 6.57 |  |  | 0.967 | > 0.0125 | 0.995 | > 10
NCI-H146 (small cell lung carcinoma, suspension) | 0.994 | > 2 | 0.994 | > 1 | 0.954 | > 10 |  |  | 0.99 | > 0.0125 | 0.993 | > 10

Source: the supplement of paper PMC4967469
